Laboratory results as given in PubChem BioAssay AID686970 (National Center for Advancing Translational Sciences (NCATS), 2013).
About 6,000 (1.7%) of roughly 360,000 compounds were called active. Inconclusive results, whose numbers are uncertain, are shown with a selection of clear calls. The call rests on the fitted dose curve; in most records, active means well fitted cell-killing curve with a large enough effect; inconclusive means small, poorly fitted or top-dose-only effect, or effect the other way; inactive means flat fitted curve, though single readings scatter. Potencies of inconclusive entries are left out as doubtful fits.

Assay: qHTS for induction of synthetic lethality in tumor cells producing 2HG: qHTS for the HT-1080-NT fibrosarcoma cell line;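 further: NT is the 2HG producing partner of a matched IDH1 knockdown line; nearly all actives have a fitted effect of over 55% in size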;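 on activity, negative = less viability: 0% = DMSO-treated cells and -100% = media-only wells without cells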
Settings: HT-1080-NT fibrosarcoma viability, CellTiter-Glo ATP luminescence, 48 h; activity, negative = less viability: at 46.1 µM (top of the series) unless noted
How it was run: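 Viability of the 2HG-overproducing fibrosarcoma line after 48 hours of compound exposure at 37 degrees C was determined by luminescence with CellTiter-Glo, and concentration-effect curves were then fitted and categorized.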
Potency means the concentration at half of the fitted maximal effect; tags describe the fitted curve by direction and shape.

Row | Structure (SMILES) | Potency | activity, negative = less viability
1 | Cc1cc(O)c(C(C[N+](=O)[O-])c2ccc(Cl)cc2Cl)c(=O)o1 (stereo not drawn) | inconclusive [cytotoxic, single point] | 
2 | CCC1=Nc2cc(C(=O)NCc3ccco3)ccc2Sc2ccc(C)cc21 | active: 1.3 µM | 
3 | CCOc1ccc(C2c3[nH]c4ccccc4c3CCN2C(=O)Cn2cncn2)cc1 (stereo not drawn) | inconclusive [cytotoxic, single point] | 
4 | CCOc1ccc(C(=O)NCCC(=O)NCCCC(=O)O)cc1 |  | inactive: 0.858%
5 | NC(=O)c1c(NC(=O)c2cccnc2)sc2c1CCCC2 | inconclusive [rising, partial curve] | 
6 | COc1ccc2c(c1)CCc1c(C(=O)N3CCCc4ccccc43)noc1-2 | inconclusive [cytotoxic, single point] | 
7 | CC(C)c1ccc(/C=c2\sc3nc(-c4ccncc4)nn3c2=O)cc1 |  | inactive: 7.34%
8 | COc1ccc(C(OCC(O)CNC(C)c2ccccc2)c2ccc(OC)cc2)cc1 (stereo not drawn) | inconclusive [cytotoxic, single point] | 
9 | CC(C)C1C(=O)N(Cc2cn(Cc3ccco3)nn2)CCS(=O)(=O)N1Cc1ccc(-c2ccc(Cl)c(Cl)c2)cc1 (stereo not drawn) | inconclusive [cytotoxic, partial curve] | 
10 | CC(=O)N(Cc1ccc(F)cc1)C1=C(NCc2ccccc2)C(=O)c2ccccc2C1=O | active: 4.47 µM | 
11 | COc1cc2c(cc1OC)C(c1ccccc1F)OC(=O)C2 (stereo not drawn) |  | inactive: 2.71%
12 | O=C1c2cccc3c([N+](=O)[O-])ccc(c23)C(=O)N1Cc1cccnc1 | active: 8.2 µM | 
13 | Cc1ccc(NC(=S)Nc2cccnc2)c(S(=O)(=O)N2CCCCC2)c1 | inconclusive [cytotoxic, single point] | 
14 | CC(O)(c1ccccc1)c1nc(-c2ccncc2)cs1 (stereo not drawn) |  | active: -35.6%
15 | c1ccc(Cc2nnc(Sc3ccccc3)c3ccccc23)cc1 | inconclusive [cytotoxic, single point] | 
16 | CN(CCO)c1cc(Sc2nc3ccccc3s2)c2nonc2c1[N+](=O)[O-] | active: 6.31 µM | 
17 | Cc1ccc(-c2nnc(N3CCCCC3)c3ccccc23)cc1S(=O)(=O)NCC1CCCO1 (stereo not drawn) | inconclusive [cytotoxic, single point] | 
18 | O=C(CN1C(=O)C(c2ccccc2)Oc2cccnc21)NCc1ccccc1F (stereo not drawn) |  | inactive: -4.91%
19 | Cc1cccc(N2CCN(C(=O)c3cccc(N4CCCC4=O)c3)CC2)c1C | inconclusive [cytotoxic, single point] | 
20 | Cc1ccc(C)c(S(=O)(=O)N2CCN(c3ncnc4sccc34)CC2)c1 | active: 5.8 µM | 
21 | CC1CC(NC(=O)Cc2ccc(Br)cc2)CC(C)(C)C1 (stereo not drawn) | inconclusive [cytotoxic, single point] | 
22 | COc1ccccc1C(=O)Nc1ccc(OCC(=O)N2C(C)CCCC2C)cc1 (stereo not drawn) |  | inactive: 14.2%
23 | Cc1ccc(-c2nc3ccccc3[nH]2)cc1NC(=O)/C=C/c1ccco1 | inconclusive [cytotoxic, single point] | 
24 | Cc1ccc(-c2ccc(C(=O)Nc3cccc(F)c3)o2)c2ccccc12 |  | inactive: 0%
25 | O=C(c1ccc(CS(=O)c2ccc(F)cc2)o1)N1CCN(C2CCCCC2)CC1 (stereo not drawn) |  | inactive: 9.88%

Row | Structure (SMILES) | Potency | activity, negative = less viability
26 | Cc1ccc(S(=O)(=O)NC(=O)N(C)C2CCCCC2)cc1 | inconclusive [cytotoxic, single point] | 
27 | COc1cc(-c2nc(-c3ccc(NC(=O)c4ccc(Br)o4)cc3)no2)cc(OC)c1OC | inconclusive [cytotoxic, single point] | 
28 | C/C(CC1(O)C(=O)N(C)c2ccccc21)=N\O (stereo not drawn) |  | inactive: 1.52%
29 | CCc1nc2ccc(C(=O)NCc3cccs3)cn2c1N(CCC(C)C)CCN(C)C | inconclusive [cytotoxic, single point] | 
30 | O=C(NNC1=C(C(=O)C(F)(F)F)CCC1)c1ccccc1Cl | active: 14.6 µM | 
31 | Cc1ccc(C)c(-n2c(-c3ccco3)n[nH]c2=S)c1 | inconclusive [rising, single point] | 
32 | CCN(CCCNC(=O)CNC(=O)c1nn(-c2ccc(OC)cc2OC)c(=O)c2ccccc12)c1cccc(C)c1 |  | inactive: -17.4%
33 | CC(C)C[C@@H](CN)NC(=O)c1nc[nH]c1C(=O)N[C@@H](CC(C)C)C(=O)CNC[C@H](C)NC(=O)c1nc[nH]c1C(=O)N[C@@H](C)C(=O)O |  | inactive: 3.6%
34 | COC(=O)c1cc(C(=O)N2CCOCC2)cc([N+](=O)[O-])c1 |  | inactive: 8.03%
35 | CCS(=O)(=O)c1ccc(O)c(NC(=O)CC2(CC(=O)O)CCCC2)c1 |  | inactive: 21.3%
36 | CCCCCC(=O)N1C[C@H](n2cc(COC(=O)c3ccccc3)nn2)[C@@H](O)C[C@@H]1c1ccc(OC)cc1 | inconclusive [cytotoxic, single point] | 
37 | COc1ccc(OC)c(NC(=O)C2(C)CCN2CCc2ccccc2)c1 (stereo not drawn) | inconclusive [cytotoxic, single point] | 
38 | S=C(NCCCN1CCOCC1)N1CCN(c2nc(-c3ccccc3)cs2)CC1 | active: 18.4 µM | 
39 | CCC(C)N(C(=O)c1csnn1)C(C(=O)NC(C)(C)C)c1ccccc1 (stereo not drawn) | inconclusive [rising, single point] | 
40 | CCN(CC)c1cc2c(c3c1ccn3C)C1CCC2O1 (stereo not drawn) |  | inactive: 20.8%
41 | O=c1oc2ccccc2c(O)c1/C=N/c1ccccn1 | inconclusive [cytotoxic, single point] | 
42 | COc1ccccc1NS(=O)(=O)c1cccc(C(=O)N/N=C/c2c(C)nn(-c3ccccc3)c2N2CCCC2)c1 |  | inactive: 1.9%
43 | Cc1cc(C)c(CN2CCN(C(=O)Cn3cnc4c(NCc5ccccc5)ncnc43)CC2)c(C)c1 | inconclusive [cytotoxic, partial curve] | 
44 | Nc1nnc(SCC(=O)Nc2cccc(S(=O)(=O)N3CCOCC3)c2)s1 |  | inactive: 5.97%
45 | Cc1ncc([N+](=O)[O-])n1Cc1ccccc1F | inconclusive [rising, single point] | 
46 | CCOc1ccc(NC(=S)N=Nc2c(O)[nH]c3ccccc23)cc1 | inconclusive [cytotoxic, partial curve] | 
47 | Cc1onc(-c2ccccc2Cl)c1C(=O)Nc1ccc(Br)cc1 | inconclusive [cytotoxic, partial curve] | 
48 | Clc1cccc(Cl)c1C[n+]1cccc2ccccc21 | inconclusive [cytotoxic, partial curve, poor fit] | 
49 | Cc1sc2nc[nH]c(=S)c2c1-c1ccccc1 | inconclusive [cytotoxic, single point] | 
50 | O=S(=O)(NCc1ccccc1)c1cccs1 |  | inactive: 6.2%

Row | Structure (SMILES) | Potency | activity, negative = less viability
51 | COc1cc(/C=C2\SC(=O)N(CC(=O)Nc3cccc(C)c3)C2=O)cc([N+](=O)[O-])c1O | inconclusive [cytotoxic, partial curve] | 
52 | Nc1ccc(C#Cc2ccc3sc4ccccc4c(=O)c3c2)cc1 |  | inactive: -7.43%
53 | COC(=O)c1sc2ccccc2c1-n1cccc1C(=O)C(=O)Nc1ccc(C)cc1 |  | inactive: -5.69%
54 | CC(=O)N/C(=C\c1ccccc1)C(=O)OCC(=O)Nc1cc(S(=O)(=O)N(C)C)ccc1Cl |  | inactive: -1.17%
55 | C[C@@H](NCCCn1ccc(NC(=O)OCc2ccccc2)nc1=O)c1cccc2ccccc12 |  | inactive: -10.6%
56 | NC(=O)c1nnn(Cc2cc(Cl)c(C(=O)c3ccc(Cl)cc3)c(Cl)c2)c1N | active: 9.2 µM | 
57 | Cc1cc(Nc2ccc(C)c(C)c2)c2ccccc2n1 | inconclusive [cytotoxic, single point] | 
58 | N#CC1=C(N)Oc2cc(N)ccc2C1c1ccccc1F (stereo not drawn) | active: 14.6 µM | 
59 | COC(=O)c1ccc(OCC2c3cc(OC)c(OC)cc3CCN2C(=O)C2CC2)cc1 (stereo not drawn) | inconclusive [cytotoxic, single point] | 
60 | Cc1ccc(C)c(-c2nnc(NC(=O)c3ccc([N+](=O)[O-])o3)o2)c1 | inconclusive [cytotoxic, single point] | 
61 | CNC(=O)NC(=O)CSc1ccc(S(=O)(=O)N2CCOCC2)cn1 |  | inactive: 9.78%
62 | Cc1nc2c3cc(F)ccc3n(Cc3ccccc3)c2s1 | inconclusive [cytotoxic, single point] | 
63 | CCCCCC(=O)N/N=C(\C)c1ccccn1 |  | inactive: 1.3%
64 | C[C@H](C[C@H](O)[C@H]1OC1(C)C)C1=C2C[C@H](O)C3[C@@]4(C)CCC(=O)C(C)(C)C4CC[C@]3(C)[C@@]2(C)CC1 (stereo partly drawn) | inconclusive [cytotoxic, single point] | 
65 | CC(=O)N1CCc2c(sc(NC(=O)c3ccc4c(c3)OCCO4)c2C#N)C1 | active: 18.4 µM | 
66 | O=[N+]([O-])c1ccc(/C=N/Nc2nc(N3CCCCCC3)nc(N3CCCCCC3)n2)o1 | inconclusive [cytotoxic, single point] | 
67 | O=[N+]([O-])c1ccc2cn[nH]c2c1 | inconclusive [cytotoxic, full curve] | 
68 | O=c1c2ccccc2nc(SCCN2CCCCC2)n1CCc1ccccc1 | inconclusive [cytotoxic, partial curve] | 
69 | C/C(N)=C(/C#N)C(=O)CSc1nnc(-c2ccccc2Br)o1 | inconclusive [cytotoxic, single point] | 
70 | CC(C(=O)Nc1ccccc1)c1ccc(-c2ccccc2)c(F)c1 (stereo not drawn) | inconclusive [cytotoxic, partial curve] | 
71 | CSc1nc(N)c(C#N)c(-c2ccccc2Cl)c1C#N | inconclusive [cytotoxic, partial curve] | 
72 | Fc1ccc(-c2nn(-c3ccccc3)cc2CNCc2ccccc2)cc1 | active: 20.6 µM | 
73 | Cn1cc(CN2CCC(n3nccc3NC(=O)c3ccccc3Cl)CC2)c2ccccc21 | inconclusive [cytotoxic, partial curve, poor fit] | 
